# Laboratory results as given in PMC4336329 (PLoS ONE, 2015).
# Among all 310,000 compounds or so, about 14,000 (4.5%) showed an effect of 50% or more. Effects have a minus sign here. Some of the results follow.
# Biological target: human ether-à-go-go-related gene (hERG) potassium channel (human, UniProt Q12809)
# Assay: primary screen, population patch clamp on CHO cells stably expressing hERG
# 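Further: peak tail current of the secondary pulse compared with the same well before compound.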
# Sequence of human ether-à-go-go-related gene (hERG) potassium channel (Q12809 whole entry, looked up): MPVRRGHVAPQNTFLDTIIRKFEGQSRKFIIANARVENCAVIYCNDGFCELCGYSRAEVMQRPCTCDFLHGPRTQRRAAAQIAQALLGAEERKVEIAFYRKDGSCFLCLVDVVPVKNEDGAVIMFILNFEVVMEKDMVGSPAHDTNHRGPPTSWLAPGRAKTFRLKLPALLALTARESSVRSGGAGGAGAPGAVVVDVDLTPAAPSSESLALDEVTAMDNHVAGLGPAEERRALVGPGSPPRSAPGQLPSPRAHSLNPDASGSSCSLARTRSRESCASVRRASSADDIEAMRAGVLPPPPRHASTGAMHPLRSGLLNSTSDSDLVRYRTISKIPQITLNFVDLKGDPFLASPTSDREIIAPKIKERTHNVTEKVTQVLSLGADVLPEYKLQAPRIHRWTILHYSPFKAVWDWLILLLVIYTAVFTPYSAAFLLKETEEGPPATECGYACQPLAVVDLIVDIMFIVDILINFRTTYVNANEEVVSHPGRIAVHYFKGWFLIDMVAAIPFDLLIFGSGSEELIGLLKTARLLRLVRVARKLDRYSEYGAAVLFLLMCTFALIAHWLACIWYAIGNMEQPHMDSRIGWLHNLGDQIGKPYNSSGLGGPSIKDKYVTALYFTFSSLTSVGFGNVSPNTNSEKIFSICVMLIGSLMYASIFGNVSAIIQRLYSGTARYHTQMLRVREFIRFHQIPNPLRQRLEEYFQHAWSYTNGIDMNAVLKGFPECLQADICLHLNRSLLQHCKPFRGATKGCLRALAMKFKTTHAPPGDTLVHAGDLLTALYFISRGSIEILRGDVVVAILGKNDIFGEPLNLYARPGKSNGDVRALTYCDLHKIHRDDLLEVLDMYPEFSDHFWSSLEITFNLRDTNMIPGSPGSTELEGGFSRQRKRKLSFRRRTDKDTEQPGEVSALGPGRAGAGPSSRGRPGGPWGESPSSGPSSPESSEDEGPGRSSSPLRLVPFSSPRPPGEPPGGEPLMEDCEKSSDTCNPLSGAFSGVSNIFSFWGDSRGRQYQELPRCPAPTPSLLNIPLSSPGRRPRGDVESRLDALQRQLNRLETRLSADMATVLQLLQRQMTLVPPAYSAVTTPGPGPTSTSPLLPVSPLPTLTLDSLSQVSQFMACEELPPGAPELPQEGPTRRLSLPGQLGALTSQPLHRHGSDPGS
row,SMILES,"hERG current change (%, negative = inhibition) at 10uM [%]"
1,CCCC(C)C1(CC)C(=O)NC(=Nc2ccc(OC)cc2)NC1=O (stereo not drawn),1.1
2,Cc1cc(OCC(=O)NC2CCCCC2)ccc1Cl,4.1
3,CC(=O)c1csc(COc2ccc(Cl)cc2)n1,11.9
4,Cc1ccc(CSCC(=O)Nc2ccc3c(c2)OCO3)cc1,-14.5
5,CC(=O)c1ccc(-c2ccc(C(=O)N3CCC(C(N)=O)CC3)o2)cc1,-5.3
6,Cc1ccc(OC(=O)c2ccc(C)c([N+](=O)[O-])c2)cn1,20.9
7,COC(=O)c1ccc(-n2cncn2)c(F)c1,8.06
8,COc1ccccc1NC(=O)CN1CCOCC1,15.7
9,CCOCCn1cnc2sc(C(=O)NCC(=O)OCC)c(C)c2c1=O,-3.75
10,CCOc1cccc2sc(N(CCN(C)C)C(=O)/C=C/c3cccs3)nc12.Cl,-40.7
11,O=C(COC(=O)/C=C/c1cccc(C(F)(F)F)c1)NC1CCCCCC1,-0.0149
12,O=C(O)c1cc(-c2ccncc2)nc2ccc(S(=O)(=O)N3CCOCC3)cc12,6.02
13,CCOC(=O)CN1CC23C=CC(O2)C(C(=O)NC2CCCC2)C3C1=O (stereo not drawn),2.55
14,CCC(C)(C)C1CCc2c(sc(NC(=O)c3cccs3)c2C(N)=O)C1 (stereo not drawn),17.3
15,O=C(CN1CCN(Cc2ccccc2)CC1)N/N=C/C=C/c1ccccc1[N+](=O)[O-],-74.2
16,C=C(C)c1ccc(C(C)(C)NC(=O)NCc2ccco2)cc1,-5.58
17,Cc1c(C=O)c2ccccn2c1C(=O)c1ccncc1,-12.7
18,COc1ccc(NC(=O)C(F)(F)F)cc1OC,15.1
19,CCOc1ccc(CSC2=NCCN2)cc1Cl.Cl,-50.9
20,CC(C)SCC(=O)Nc1ncc2c(n1)-c1ccccc1CC2,7.72

row,SMILES,"hERG current change (%, negative = inhibition) at 10uM [%]"
1,Cc1cc(=O)[nH]c(SCCCOc2ccc(F)cc2)n1,-10.3
2,CN1C(=O)C2(NCCc3c2[nH]c2ccccc32)c2ccccc21 (stereo not drawn),11
3,CNC(=S)N1N=C(c2ccc(C)cc2)CC1c1cc(OC)ccc1OC (stereo not drawn),6.63
4,Cc1ccc(S(=O)(=O)c2ncccc2[N+](=O)[O-])cc1,-64
5,COC(=O)c1c(C)[nH]c(C(=O)COC(=O)c2c(C)noc2C)c1C,8.44
6,COc1ccc(Nc2nc(C)cc(C)c2C#N)cc1,12.4
7,N=C1C(c2ccccc2)=C(O)CN1NC(=O)c1ccc(Cl)cc1,15.3
8,COc1ccccc1NC(=S)NC(=O)CCc1ccccc1,1.83
9,O=C(NC(=S)Nc1cccnc1Cl)c1ccc(F)cc1,15.3
10,COc1ccc(-n2c(=O)cc(N3CCc4ccccc43)[nH]c2=O)cc1,-0.92
11,COc1ccccc1-n1nc(C)c(-c2ccccc2)c1N,23
12,O=c1c(Sc2ccccc2)c(C(F)(F)F)[nH]n1-c1ccccc1,22.4
13,Cn1cc(Cl)cc(C(=O)Nc2ccccc2)c1=O,15.2
14,Cc1nc2c(C(=O)NCc3cccs3)cnn2c(C)c1Cc1ccccc1,19.5
15,COc1cc(-c2noc(CCCC(=O)NC3CCCCC3)n2)cc(OC)c1OC,-4.29
16,O=C(NNC(=O)c1cc(-c2ccccc2Cl)nc2ccccc12)c1csc(N2CCOCC2)n1,-17.1
17,CN(C)C(=O)Oc1ccc(Cl)c2ccccc12,3.97
18,O=C(N/N=C/c1ccncc1)C12CC3CC(CC(C3)C1)C2,-5.53
19,Nc1nc(-c2ccccc2)c(N=Nc2cccnc2)s1,21.6
20,Cl.OC(COCc1ccc2c(c1)OCO2)CN1CCC(Cc2ccccc2)CC1 (stereo not drawn),-87.6

row,SMILES,"hERG current change (%, negative = inhibition) at 10uM [%]"
1,COc1ccc(C)cc1NC(=S)NN1CCN(C)CC1,22.1
2,CCC1=C(C)CN(C(=O)NCCc2ccc(S(=O)(=O)NC(=O)NC3CCC(C)CC3)cc2)C1=O (stereo not drawn),-13.5
3,O=C(NC(=S)NCc1ccco1)c1ccc(Br)cc1,13.2
4,Cc1cc(C)n(/N=C/c2cccc(O)c2)c(=O)c1C(N)=O,4.31
5,COc1cc(CC(=O)OCC(=O)NC2CCCCC2C)cc(OC)c1OC (stereo not drawn),2.43
6,COc1ccc(-c2ccc(SCC(=O)N3c4ccccc4CC3C)nn2)cc1OC (stereo not drawn),-4.75
7,COc1ccc(-c2cncnc2-c2ccc(OC)cc2O)cc1,7.35
8,O=C(Oc1ccc(F)cc1C(=O)/C=C/c1cccs1)c1cccc([N+](=O)[O-])c1,17.3
9,O=C(Nn1cnnc1)C(Sc1ccccc1)c1ccccc1 (stereo not drawn),9.55
10,COc1cc(/C=C2/C(=O)N(c3ccc(C)c(C)c3)N=C2C)cc([N+](=O)[O-])c1O,0.685
11,COc1ccc(CSCCc2n[nH]c(=S)n2-c2ccccc2)cc1,20.1
12,COC(=O)c1ccc(NS(=O)(=O)c2cc3c4c(c2)C(C)C(=O)N4CCC3)cc1 (stereo not drawn),2.73
13,O=C1CC(N2CCN(c3ccc(F)cc3)CC2)C(=O)N1Cc1ccccc1 (stereo not drawn),-17.6
14,CCCc1ccc(C(=O)NNC(=O)c2ccc(Br)cc2)cc1,9
15,CCc1ccc(N(CC)c2ncnc3nc[nH]c23)cc1,-4.89
16,COc1ccc2c(c1)c(=O)c(C(=O)c1ccc(Cl)cc1)cn2CC(=O)Nc1ccc(F)cc1,12.4
17,CC(NC1=NCCS1)c1ccccc1 (stereo not drawn),9.37
18,Cc1[nH]n(-c2ccccc2)c(=O)c1N=Nc1cccc(S(=O)(=O)N2CCOCC2)c1,5.49
19,COC(=O)c1ccc(-n2nnnc2SCc2ccccc2OC)cc1,-6.11
20,O=C(OC(c1ccccc1)c1nccc2ccccc12)c1cccc([N+](=O)[O-])c1 (stereo not drawn),8.01
